± gives the standard deviation of the averaged measurements. The list shows a part of the results.

The experiment concerns PfAP2-EXP AP2 domain (GST-tagged). Kind of experiment: gcPBM binding intensity (ln(normalized median fluorescence intensity)); higher = stronger DNA binding. In short, it runs like this: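 An Agilent 4 × 180k array of primer-extended double-stranded 36-bp intergenic genomic probes, with negative controls, was incubated for 1 h with GST-tagged P. falciparum DNA-binding domains expressed in E. coli. Alexa488 anti-GST antibody detected bound protein, scanned at 488 nm. Binding intensity is the highest Masliner-normalised natural-log median intensity across replicate spots of either probe orientation.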
Consider “AAAAAAATAAATAAGACACACACAAAAAAAAAAAAA [CACACA_site8404]”, for which the “gcPBM binding intensity (ln)” value was determined as 8.62 ± 0.45.

On to “TAAATAATAATAAAATGTACATTATATATGTATATG [XGTACX_site8672]”, for which the “gcPBM binding intensity (ln)” value was 8.44 ± 0.36.

Turning to “TTTTTTTTTTTTTTCTGTACTGATACTTATAGAGTT [XGTACX_site4736]”, the “gcPBM binding intensity (ln)” value was determined as 8.34 ± 0.57.

“TCCTGTTGAGAATGGCGTACATATAAATATTATATA [XGTACX_site1841]”: the “gcPBM binding intensity (ln)” value is 8.35 ± 0.37.

“TTTCCTCATTTTATCATACACACTTGTTTATATGTG [CACACA_site8202]”: the “gcPBM binding intensity (ln)” value was 8.66 ± 0.47.

For the sequence “TTTTTTCTTTTTATAACACACAGGTGAAAAATAATA [CACACA_site1850]”, the “gcPBM binding intensity (ln)” value turned out to be 8.4 ± 0.4.

On to “AAATAATAAATATATCGTACAAATATCATATATAAA [XGTACX_site2771]”, for which the “gcPBM binding intensity (ln)” value was 8.32 ± 0.38.

Regarding “CAGGTTCTTATATAGTGTACTATAGACATTCAATTG [XGTACX_site7239]”, the “gcPBM binding intensity (ln)” value is 8.46 ± 0.28.

With “TATTACTTTATATATACACACATATAACATAAATGC [CACACA_site3948]”, the “gcPBM binding intensity (ln)” value came out at 8.5 ± 0.3.

For “ATATATATATATATATGTACATACAATTATATTCTC [XGTACX_site1133]”, the “gcPBM binding intensity (ln)” value was determined as 10.2 ± 0.29.

For the sequence “TACATAAATTTTAATACATGCAAATAAAATATATAA [TGCATGCA_site131]”, the “gcPBM binding intensity (ln)” value was found to be 8.88 ± 0.4.

In the case of “AAAAATCATTTAAGAACACACAAATATTTCCATTAA [CACACA_site1488]”, the “gcPBM binding intensity (ln)” value was 8.18 ± 0.48.

With “AATCTTCTTAATTGTAGTACACAATTTATAAACAAA [XGTACX_site8706]”, the “gcPBM binding intensity (ln)” value amounted to 8.61 ± 0.3.

As to “AAAAAAAAAAAAAACACACACACATAGACCTCCAAT [CACACA_site3563]”, the “gcPBM binding intensity (ln)” value came out at 8.71 ± 0.57.

For “ATAACGAACACTATTACACACATACATACATATGTA [CACACA_site5092]”, the “gcPBM binding intensity (ln)” value stood at 8.81 ± 0.41.

As for TTTTTTGTTACAACAGTGCAAAAAAACCTTAATGTT, the “gcPBM binding intensity (ln)” value worked out at 8.4 ± 0.19.

For “ATAAAAAATATCACATAAAATAAAAAAAGAAAGGAT [XGTACX_negctrl_site294]”, the “gcPBM binding intensity (ln)” value is 9.06 ± 0.52.

Take “TTTTAAAAAAAAAAAAAATAAGATAAAATTAAATAA [GTGCAC_negctrl_site367]”: the “gcPBM binding intensity (ln)” value is 8.11 ± 0.54.

For “ATATATAAAAATAAATGTACATATTCATATGATGAT [XGTACX_site3411]”, the “gcPBM binding intensity (ln)” value amounted to 8.62 ± 0.4.

For the sequence “TATATATAAAAATATACACACTGTATTATTGTAATA [CACACA_site5959]”, the “gcPBM binding intensity (ln)” value was 8.23 ± 0.48.

Turning to “TATATATATACAGTAGTGCATATATTTAAAATATAT [GTGCAC_site9999]”, the “gcPBM binding intensity (ln)” value was 9.14 ± 0.33.

With “TATATACATACATATTGTACTTATAAAGATTAATTT [XGTACX_site2203]”, the “gcPBM binding intensity (ln)” value worked out at 8.23 ± 0.34.

For the sequence “ATATAAGTATATCTATGTACATACAATATAAATGTA [XGTACX_site2153]”, the “gcPBM binding intensity (ln)” value was determined as 8.46 ± 0.33.

With “AATAGTTATTCCAGGTGTACATAACATATAATTTAC [XGTACX_site1340]”, the “gcPBM binding intensity (ln)” value turned out to be 8.59 ± 0.35.

Regarding “ATCAAAAGAAGACACACACACATACCTATAAATATA [CACACA_site7736]”, the “gcPBM binding intensity (ln)” value amounted to 8.59 ± 0.45.

In the case of “TTATTATTATTACTTACGCACACTTTTTTTTTTATT [CACACA_site411]”, the “gcPBM binding intensity (ln)” value came to 9.02 ± 0.35.

On to “ATAGGATATTATTCCTGTACATATATATATATATAT [XGTACX_site2108]”, for which the “gcPBM binding intensity (ln)” value stood at 10.1 ± 0.33.

As to GACAATTATATGTAGGTGCATATACAAATTTTTTAA, the “gcPBM binding intensity (ln)” value came out at 8.81 ± 0.099.

As to “TGTAATATATGTATTGCACACCTATAACCATTATTT [CACACA_site8422]”, the “gcPBM binding intensity (ln)” value was 8.62 ± 0.28.

With “ATAATTATATTTAGTGGTACTACTTTTGATAATTAG [XGTACX_site6562]”, the “gcPBM binding intensity (ln)” value came to 8.47 ± 0.33.

Consider “TATAAGTGCCGTTATACACACGTTATATAAATATTA [CACACA_site4401]”, for which the “gcPBM binding intensity (ln)” value was 8.34 ± 0.19.

For the sequence “AGTAGAATATCCCCTACACACCCAAGTAATTTACAA [CACACA_site6708]”, the “gcPBM binding intensity (ln)” value was determined as 9.24 ± 0.82.

Turning to “AAATGTGAAAAAGAGTGTACCCGACTTGAAATTAAG [XGTACX_site8621]”, the “gcPBM binding intensity (ln)” value amounted to 8.9 ± 0.38.

For the sequence “TTTAATTTTCAATGGCGTACATATAAAATATTATAT [XGTACX_site1672]”, the “gcPBM binding intensity (ln)” value was found to be 8.44 ± 0.38.

For the sequence “AATTAAAAGTGAAGAGTGCATAGAATTTTTTACTTT [GTGCAC_site9973]”, the “gcPBM binding intensity (ln)” value is 8.55 ± 0.33.

Turning to “ATATGCACTTTTTGCACACGTATGAATAACAAAATA [CACACA_site1810]”, the “gcPBM binding intensity (ln)” value amounted to 8.96 ± 0.15.

On to “GATGAATAATATGTATGTACATATGCATTATGATGT [XGTACX_site7655]”, for which the “gcPBM binding intensity (ln)” value turned out to be 8.72 ± 0.27.

For the sequence “ACATATAGATAAATATGTACATATATATATATATAT [XGTACX_site1806]”, the “gcPBM binding intensity (ln)” value is 10 ± 0.41.

In the case of “TTATCATATCATGGAAGTACAAATAAAATATATAAC [XGTACX_site1608]”, the “gcPBM binding intensity (ln)” value amounted to 9.02 ± 0.35.

Consider “TTTTCTGTGTTTACATGTACGAAAGATTAATATTAT [XGTACX_site5214]”, for which the “gcPBM binding intensity (ln)” value stood at 8.71 ± 0.45.

With “ATTTGATAGACACATGCACACATGCAATACTTTATT [CACACA_site5633]”, the “gcPBM binding intensity (ln)” value worked out at 8.94 ± 0.35.

As for “ATATATATATATATATCACACATTAATAATATATAT [CACACA_site5081]”, the “gcPBM binding intensity (ln)” value amounted to 10.1 ± 0.42.

In the case of “TACATACATACATACACACACATATAGATTTATATA [CACACA_site6999]”, the “gcPBM binding intensity (ln)” value was 9.02 ± 0.16.

As to “TATATAAAAATATACACACACAAATGTATATATATA [CACACA_site220]”, the “gcPBM binding intensity (ln)” value stood at 8.86 ± 0.13.

Consider “ATCAATCATGGTTTTACACACACATGCATGTGAAAA [CACACA_site1350]”, for which the “gcPBM binding intensity (ln)” value amounted to 9.28 ± 0.28.

The values above are taken from the supplement of paper PMC11417369.
